Experimental data published in publication PMC4288184.
These are yes or no findings as the source states them, for the method shown. In cells and extracts the contact can be indirect. Some results given as binding are weak or reduced against the parent protein; the word gives no strength. Where a sequence is shown, tags or fusion partners need not be part of it.

Tests used:
[1] = target: T1, GST-hHMGA2 C (aa 94–109) (human) (UniProt P52926); assay: pull-down; purified GST-HMGA2 fusion proteins as bait, cell extracts from MDA-MB-231 and MCF10CA1a breast cancer cells, endogenous CTCF (Supplementary Figure S4B); only the target purified
T1 sequence: QEETEETSSQESAEED

[2] = target: T2, GST-hHMGA2 N2 (aa 1–25) (human) (UniProt P52926); assay: as above
T2 sequence: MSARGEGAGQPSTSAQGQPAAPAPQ

[3] = target: T3, GST-hHMGA2 N1 (aa 1–35) (human) (UniProt P52926); assay: as above
T3 sequence: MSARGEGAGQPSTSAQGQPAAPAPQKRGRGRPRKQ

[4] = target: T4, GST-hHMGA2 ΔC (aa 1–83) (human) (UniProt P52926); assay: as above
T4 sequence: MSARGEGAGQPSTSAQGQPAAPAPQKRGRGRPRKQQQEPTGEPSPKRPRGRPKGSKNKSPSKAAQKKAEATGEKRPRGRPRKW

[5] = target: T1, GST-hHMGA2 C (aa 94–109) (human); assay: pull-down; purified GST-HMGA2 fusion proteins as bait, HEK293T cell extracts, immunoblot for endogenous CTCF; only the target purified
[6] = target: T2, GST-hHMGA2 N2 (aa 1–25) (human); assay: as above
[7] = target: T3, GST-hHMGA2 N1 (aa 1–35) (human); assay: as above
[8] = target: T4, GST-hHMGA2 ΔC (aa 1–83) (human); assay: as above

Binder | binding [1] | binding [2] | binding [3] | binding [4] | binding [5] | binding [6] | binding [7] | binding [8]
CCCTC-binding factor (CTCF), endogenous in MCF10CA1a cells (protein, UniProt P49711 1-727) MEGDAVEAIVEESETFIKGKERKTYQRRREGGQEEDACHLPQNQTDGGEVVQDVNSSVQMVMMEQLDPTLLQMKTEVMEGTVAPEAEAAVDDTQIITLQVVNMEEQPINIGELQLVQVPVPVTVPVATTSVEELQGAYENEVSKEGLAESEPMICHTLPLPEGFQVVKVGANGEVETLEQGELPPQEDPSWQKDPDYQPPAKKTKKTKKSKLRYTEEGKDVDVSVYDFEEEQQEGLLSEVNAEKVVGNMKPPKPTKIKKKGVKKTFQCELCSYTCPRRSNLDRHMKSHTDERPHKCHLCGRAFRTVTLLRNHLNTHTGTRPHKCPDCDMAFVTSGELVRHRRYKHTHEKPFKCSMCDYASVEVSKLKRHIRSHTGERPFQCSLCSYASRDTYKLKRHMRTHSGEKPYECYICHARFTQSGTMKMHILQKHTENVAKFHCPHCDTVIARKSDLGVHLRKQHSYIEQGKKCRYCDAVFHERYALIQHQKSHKNEKRFKCDQCDYACRQERHMIMHKRTHTGEKPYACSHCDKTFRQKQLLDMHFKRYHDPNFVPAAFVCSKCGKTFTRRNTMARHADNCAGPDGVEGENGGETKKSKRGRKRKMRSKKEDSSDSENAEPDLDDNEDEEEPAVEIEPEPEPQPVTPAPPPAKKRRGRPPGRTNQPKQNQPTAIIQVEDQNTGAIENIIVEVKKEPDAEPAEGEEEEAQPAATDAPNGDLTPEMILSMMDR | no binding | no binding | binds | binds | – | – | – | –
CCCTC-binding factor (CTCF), endogenous in HEK293T cells (protein, UniProt P49711 1-727) MEGDAVEAIVEESETFIKGKERKTYQRRREGGQEEDACHLPQNQTDGGEVVQDVNSSVQMVMMEQLDPTLLQMKTEVMEGTVAPEAEAAVDDTQIITLQVVNMEEQPINIGELQLVQVPVPVTVPVATTSVEELQGAYENEVSKEGLAESEPMICHTLPLPEGFQVVKVGANGEVETLEQGELPPQEDPSWQKDPDYQPPAKKTKKTKKSKLRYTEEGKDVDVSVYDFEEEQQEGLLSEVNAEKVVGNMKPPKPTKIKKKGVKKTFQCELCSYTCPRRSNLDRHMKSHTDERPHKCHLCGRAFRTVTLLRNHLNTHTGTRPHKCPDCDMAFVTSGELVRHRRYKHTHEKPFKCSMCDYASVEVSKLKRHIRSHTGERPFQCSLCSYASRDTYKLKRHMRTHSGEKPYECYICHARFTQSGTMKMHILQKHTENVAKFHCPHCDTVIARKSDLGVHLRKQHSYIEQGKKCRYCDAVFHERYALIQHQKSHKNEKRFKCDQCDYACRQERHMIMHKRTHTGEKPYACSHCDKTFRQKQLLDMHFKRYHDPNFVPAAFVCSKCGKTFTRRNTMARHADNCAGPDGVEGENGGETKKSKRGRKRKMRSKKEDSSDSENAEPDLDDNEDEEEPAVEIEPEPEPQPVTPAPPPAKKRRGRPPGRTNQPKQNQPTAIIQVEDQNTGAIENIIVEVKKEPDAEPAEGEEEEAQPAATDAPNGDLTPEMILSMMDR | – | – | – | – | no binding | no binding | binds weakly | binds
CCCTC-binding factor (CTCF), endogenous in MDA-MB-231 cells (protein, UniProt P49711 1-727) MEGDAVEAIVEESETFIKGKERKTYQRRREGGQEEDACHLPQNQTDGGEVVQDVNSSVQMVMMEQLDPTLLQMKTEVMEGTVAPEAEAAVDDTQIITLQVVNMEEQPINIGELQLVQVPVPVTVPVATTSVEELQGAYENEVSKEGLAESEPMICHTLPLPEGFQVVKVGANGEVETLEQGELPPQEDPSWQKDPDYQPPAKKTKKTKKSKLRYTEEGKDVDVSVYDFEEEQQEGLLSEVNAEKVVGNMKPPKPTKIKKKGVKKTFQCELCSYTCPRRSNLDRHMKSHTDERPHKCHLCGRAFRTVTLLRNHLNTHTGTRPHKCPDCDMAFVTSGELVRHRRYKHTHEKPFKCSMCDYASVEVSKLKRHIRSHTGERPFQCSLCSYASRDTYKLKRHMRTHSGEKPYECYICHARFTQSGTMKMHILQKHTENVAKFHCPHCDTVIARKSDLGVHLRKQHSYIEQGKKCRYCDAVFHERYALIQHQKSHKNEKRFKCDQCDYACRQERHMIMHKRTHTGEKPYACSHCDKTFRQKQLLDMHFKRYHDPNFVPAAFVCSKCGKTFTRRNTMARHADNCAGPDGVEGENGGETKKSKRGRKRKMRSKKEDSSDSENAEPDLDDNEDEEEPAVEIEPEPEPQPVTPAPPPAKKRRGRPPGRTNQPKQNQPTAIIQVEDQNTGAIENIIVEVKKEPDAEPAEGEEEEAQPAATDAPNGDLTPEMILSMMDR | no binding | no binding | binds | binds | – | – | – | –
